B1: OR4K15 (parent)
chain: GUUAACGGUCAUAGGCCAUGGAAACUAGGAGCACCAUUUCGCUGCCAGUGAAGAAAUGAACAAAGAAAAUCUGGGCCAGGCAGGCAUCAAAAGAAAUAGUCUUGCGCUCAACCAGAAAGUCUGUAAUCAUUUUAAGGGUA

Read counts are not given, so values of variants with three or more changes are uncertain.

This data set covers variants of B1. Put plainly: self-cleavage, relative activity (ratio to wild type); higher = more cleavage; in vitro, sequencing; the parent is a self-cleaving ribozyme.
Take A60U A67G A117G: the self-cleavage worked out at 1.81.

On to A60G A68U A89C A116G, for which the self-cleavage came out at 0.4.

Consider A60G A68G U130C, for which the self-cleavage was found to be 0.53. For the variant A60U A63G U130A, the self-cleavage was 0.65. Then A60G U102C G138A, with 1.49.

For A62G A64G A92G U97A, the self-cleavage turned out to be 1.31.

With A60G A117G U120C, the self-cleavage is 0.23. The figure for A62G A68G G106A is 0.02; for A60G C101A U122C it is 0.12. A62C U72G U108C: the self-cleavage stood at 0.

For the variant A60U A63G A66C A89U, the self-cleavage amounted to 2.79. On to A56G U103C U130C, for which the self-cleavage was 1.14. Take U57C A82G A126G U130C: the self-cleavage is 0.06. For A60G A78G U108C A126G, the self-cleavage was determined as 0.01. On to A59G U108C A125G, for which the self-cleavage was 0.02. A62G A92G A116G: the self-cleavage was 0.72. A56G U57C A64U A126C: the self-cleavage was found to be 0.51. For the variant A62C U72A A86G A116G, the self-cleavage turned out to be 0.05. Take A59C A67G U120C U122G: the self-cleavage stood at 2.68. Then A62G A67G A78G, with 0.25; and A60G A62G A90G U127C, with 0.12; and A59G A67G U103C A114U, with 0.03. Then A60G A68U A92G A96G U102G U120C, with 0.03; and A60G A63U A64G A68C A69G A78U, with 0.35; and A60G A78G U130C, with 0.21.

For the variant C61U U72C A110G A126G, the self-cleavage amounted to 0.01. The figure for A59G G74U A114C is 0.06; for A60G A62G A92G it is 0.39; for U57G A91G C109A it is 0.23. Take A59G A91G U127C: the self-cleavage came out at 0.75. The figure for A60U A67G G73A U122C is 0.08; for A60U A92C A110G it is 0.16; for A56G U57C A94G it is 0.62. As for G58A U120C A126G, the self-cleavage amounted to 0.78. The figure for A56G U57C A118G is 0.37; for A62G A68C A95U it is 1.82. The figure for U57A A69G A110G A114G is 0.06; for A59G A64G A92G it is 1.33. A59G A63G U70C A111G: the self-cleavage is 0. Then A59G A66U A96U A135G, with 0.82; and A59G U87A A98G A129G, with 0.42; and A60G A62G U108A A110G, with 0.01. With U57A A69G A118G, the self-cleavage was 0.52. Consider A59C A90G A118G, for which the self-cleavage came to 0.57. Turning to A56G U70C U108C A111G, the self-cleavage came out at 0. On to A60G A62G U70C, for which the self-cleavage is 0.12.

Consider U57C A89G U130C, for which the self-cleavage was determined as 0.86.

A62G A89G U131C: the self-cleavage worked out at 1.33. Turning to A60U U70A A96U, the self-cleavage is 1.14. With U57C G73A A78U A90G A125G U131C, the self-cleavage came out at 0. On to A59G U72C A91G A114G, for which the self-cleavage stood at 1.06. A56U U57C A95G: the self-cleavage came out at 2.22. With A59G A86U U87A, the self-cleavage is 2.9. Regarding G58A A59C A60G, the self-cleavage worked out at 0.86. On to A62G A63G U87C A126U, for which the self-cleavage was determined as 1.02. The figure for C61U A63G A64G A68G A94G is 1.13; for A60G A98G U130C it is 0.22; for A60U U120C A134G it is 0.53. Consider A60G A69G U87C A96G, for which the self-cleavage was 2.08. On to A60U A62G A89U, for which the self-cleavage stood at 0.87.

G58U U87C A94U C112U: the self-cleavage is 0.02. With U57A A62G U100C G136A, the self-cleavage stood at 2.91. For A56G U57C A111G A129G U131C, the self-cleavage worked out at 0.01. With U57C A118G U122C, the self-cleavage was 1.47. For A62G A69G U70C A110G A118G U132C A135U A140G, the self-cleavage came out at 0.01.

For the variant A62G A63C A116G G119A U127C, the self-cleavage was determined as 1.07.

As for A60U U102C U103C, the self-cleavage came out at 0.

For A60G C88A A89G U127C, the self-cleavage stood at 0.95. In the case of A59U A82G U132A, the self-cleavage is 0. Take A60G A92U A98G: the self-cleavage was determined as 0.81. On to A59G A63G A111G, for which the self-cleavage was determined as 0.04. As to A60G A89U A125G, the self-cleavage was 0.51.

For the variant A62G A78G A82G U122C U132C, the self-cleavage came out at 0.03. For the variant A60G A69G U127C, the self-cleavage amounted to 0.58. Turning to A59G A95G A117U U120A U131C U139C, the self-cleavage stood at 1.81. On to A60G U87A A134G, for which the self-cleavage worked out at 1.51. On to A59U U72C C88U, for which the self-cleavage was 0.4. With A60G A111G A126C U132C, the self-cleavage came out at 0.01.

In the case of A62G A66G U87C A114U, the self-cleavage was 0.02. For A60U A94U A140G, the self-cleavage amounted to 1.62. For the variant A60G A64G A114U, the self-cleavage is 0.1.

U57A A98G A117G: the self-cleavage was 0.38.

Consider A56U A59G G75A, for which the self-cleavage worked out at 0.31. The figure for A60G A68G A111G is 0.06; for A60G A116G U122C it is 0.39; for U57C U87C A92U it is 2.04. Take A59G A118G U120C U131G: the self-cleavage is 0.27. With C61G G99U U100C U108C, the self-cleavage is 0. Then A60G A78U A89G U108C, with 0.01; and A60G A67G U100C A116U, with 0.64; and A60G A68G U122C, with 0.98. Consider A62G A69G A117U, for which the self-cleavage came out at 0.48. As for A60C U102A U133A, the self-cleavage was determined as 1.16. For A60U C61U U100C, the self-cleavage turned out to be 2.21. With A60G A96G U130C, the self-cleavage stood at 0.98. Take U57C A64G U108C U130C: the self-cleavage was 0.02. With A60G A64G A78G U102A, the self-cleavage is 0.13. As to A60G A82U A135U, the self-cleavage came out at 0.04. U57C A90G U130C: the self-cleavage is 1.02. A60C A78G A125U: the self-cleavage stood at 0.31. Then A59G A92G A98G, with 0.49. As to U57C A82G C101A A118G U122C, the self-cleavage was 0.02.

Take A56G U57C A78U: the self-cleavage amounted to 0.24.

As to C61U A129G A140U, the self-cleavage amounted to 1.39. For A59G A67G A89U U108C, the self-cleavage came out at 0.02.

For A60G A68G A118G A129U, the self-cleavage came to 0.42. In the case of A60G A78U A95G U103A U120C, the self-cleavage worked out at 0.1.

As to A60G A68G A134G, the self-cleavage was found to be 0.93. As to A59U A66G U102C, the self-cleavage was 1.93. A60G A69G U130C A135C: the self-cleavage was found to be 1.68.

Take A59G A86C A92G U103C: the self-cleavage came to 0.45. As for A60G A63G U100C A114G, the self-cleavage turned out to be 0.72. For the variant U57C A96G A111G U124A U130C, the self-cleavage came to 0.01. As to A60C A82G U87A A126G, the self-cleavage came to 0.31. On to A56G U72C A95G U139G, for which the self-cleavage was 0.36. Take A59U A98U A118G: the self-cleavage came out at 0.58.

As for A60G A78G U127C, the self-cleavage amounted to 0.02. For A60G A69G U103C A118G, the self-cleavage is 0.36.

Take A59G A114G U122A: the self-cleavage was found to be 0.22. The figure for U57A A62G A129G is 0.71.

For A59U U97C A116U, the self-cleavage came out at 0.04. Consider A59U U72A A90G U122A, for which the self-cleavage was 0.13. On to A59G A96G U103C A129G, for which the self-cleavage was 0.99.

In the case of A60G A90U A91G, the self-cleavage is 1.95. For the variant A62G A68U A92U A117G, the self-cleavage came to 2.19. Take A60G A86U U108C: the self-cleavage was found to be 0.01.

Take A59G A89G A118G: the self-cleavage was 1.57. The figure for A62G A63G A66G A68G is 0.86. Regarding A59G A62G A91U, the self-cleavage was 1.5. Consider A62G A64G U103C A117G, for which the self-cleavage amounted to 0.55. For the variant U57A A66G U100C A116G U122C, the self-cleavage worked out at 1.79.

Take A56U A98G C105U A134G: the self-cleavage worked out at 0.03.

As to A60G A86G A90G, the self-cleavage amounted to 0.81. On to A56G U70C A110U A114G U122C, for which the self-cleavage is 0.03. With A59G A78U U87C U102C U108C, the self-cleavage was found to be 0.01. Turning to A60G U72A A82G U103A U120C U124C G137U, the self-cleavage was found to be 0.02. As for U57C A78U U108A U127C, the self-cleavage was 0.01. Then A59U C109U A117G U132C, with 0.58; and U57C C61U A66G A92G, with 0.18.

Regarding A60G A95G U127A, the self-cleavage came out at 2.04. With U57C A78G A91G, the self-cleavage was determined as 0.17.

On to A59U U87C U102C, for which the self-cleavage is 1.14.

As for A59G U100C A116G, the self-cleavage is 1.84. The figure for A60U C121U A125G is 1.33; for U57C A59G A60G A89G A91G it is 1.17; for A59G A92G A125G it is 0.75. Regarding U57C U87C A125G, the self-cleavage is 0.21. As for A62C A118G U131C G136U, the self-cleavage worked out at 1.55.

As to A56G U108C A135U, the self-cleavage was 0.02. U57C G83U U97C A114G U122C U132C: the self-cleavage stood at 0.01.

As for A60G A67G U122A, the self-cleavage turned out to be 1.48.

For the variant U57A U72C A82U, the self-cleavage amounted to 0.24. Regarding A59G A63U A82U A110C, the self-cleavage is 0.07. Turning to U57C A116G A118U A129U G138A, the self-cleavage came to 0.09. As to A60G A82G A91C U100C A114G, the self-cleavage stood at 0.11. For A59G A64G A94G, the self-cleavage stood at 1.78. Then A59G U70C G74A, with 0.24; and U57G A95C U97A A110G, with 0.17; and A60G U122C U127C, with 0.71. In the case of A59U A91G A110G, the self-cleavage amounted to 0.09. Then U57C A96G U100C A114G, with 1.05; and U57C G84U U97C A114G U120C, with 0.01; and A62C A69C A98U A111G, with 0.02. As to A56G G75C U108C, the self-cleavage came to 0.02. Take A56U A118G A126G: the self-cleavage was found to be 0.91.

Consider A59U A68G U100C U139C, for which the self-cleavage turned out to be 2.05. With U57C U70C A117G U130C, the self-cleavage stood at 0.71.
